In patent publication US20260022143A1, “Cyclic Peptide Inhibitors of IL-23” (JANSSEN PHARMACEUTICA NV, priority 2022, published 2026):
Part of at least one peptide drawing is inferred or uncertain, most often the ends. Positions of bridges follow the written chain, without caps; N, C: chain ends. Non-standard residues stand in square brackets, D forms with d. Residues, ends and D or L forms follow the SMILES beside them. *: point of attachment. Me3N+(CH2)2O(CH2)2O(CH2)2CO = C[N+](C)(C)CCOCCOCCC(=O)*; CH2CH2OCH2CH2OCH2CH2NMe3+ = C[N+](C)(C)CCOCCOCC*; Trp(7-Me) = Cc1cccc2c(C[C@H](N)C(=O)O)c[nH]c12; 2Nal = N[C@@H](Cc1ccc2ccccc2c1)C(=O)O; AEF = NCCOc1ccc(C[C@H](N)C(=O)O)cc1; 3Pal = N[C@@H](Cc1cccnc1)C(=O)O; Lys(Me) = CNCCCC[C@H](N)C(=O)O; Pen = CC(C)(S)[C@H](N)C(=O)O; Thp = NC1(C(=O)O)CCOCC1; X12 = C[N+](C)(C)CCC*; Sar = CNCC(=O)O

Tests used:
[1] = Exposed Polar Surface Area (EPSA); format: physicochemical; settings: SFC on Chirex 3014 column; sample 1 mM DMSO stock
Excerpt: Exposed Polar Surface Area (EPSA) is an experimental descriptor of molecular polarity obtained from chromatographic retention in supercritical fluid chromatography (SFC).
The stationary phase (Chirex 3014(S)-valine and (R)-1-(alpha-naphthyl) ethylamine) was selected for its balance of lipophilic and polar attributes and its capacity to separate compounds with wide polarity differences. The mobile phase consists of methanol (+Ammonium formate) and CO2. Polar compounds are retained stronger under these conditions and a low-slope gradient of methanol achieves elution based on increasing polarity of the mobile phase. Results are normalized using calibration standards generating a linear relationship between retention times and EPSA values. The unit of EPSA is Å^2.
Along with the measurement of compounds of interest, a series of 8 calibration standards (see Materials) are analyzed generating a linear relationship between retention times and EPSA value. The 8 compounds used as calibration standard have their own EPSA value defined by G. Goetz based on the comparison with TPSA (see G. Goetz, L. Philippe and M. Shapiro, “EPSA: A novel supercritical fluid chromatography technique enabling the design of permeable cyclic peptides,” ACS Med. Chem. Lett., vol. 5, pp. 1167-1172, 2014 for more information). The slope from the linear relationship between EPSA values of these eight compounds and their retention times is used to determine the EPSA value of each compound of interest that's measured under the same condition using the equation as below: […]
The mixture of calibrations standard is reinjected every 20 compounds to validate the stability of the retention time. […]
The Analyses were performed using a 4.6×50 mm Chirex 3014(S)-valine and (R)-1-(alpha- naphthyl) ethylamine column (Phenomenex, Le Pecq, France) with 5 um particle and 100A pore size. […] An equilibration time of 1 min is applied between 2 injections resulting in an injection every 6 min. each sample is analyzed in duplicate, resulting in a sample to sample turnaround time of 12 min. […]

IL-23R = biological target: T1, IL-23R (Homo sapiens, UniProt Q5VWK5); assay: IL23R Reporter Assay; format: cell-based; settings: HEK293 cells containing IL-23R, IL-12RP1 and STAT-inducible firefly luciferase reporter; 10 ng/mL IL-23 (EC90); 5 h at 37° C.
T1 construct: host or cells: HEK293
T1 sequence (Q5VWK5 24-629): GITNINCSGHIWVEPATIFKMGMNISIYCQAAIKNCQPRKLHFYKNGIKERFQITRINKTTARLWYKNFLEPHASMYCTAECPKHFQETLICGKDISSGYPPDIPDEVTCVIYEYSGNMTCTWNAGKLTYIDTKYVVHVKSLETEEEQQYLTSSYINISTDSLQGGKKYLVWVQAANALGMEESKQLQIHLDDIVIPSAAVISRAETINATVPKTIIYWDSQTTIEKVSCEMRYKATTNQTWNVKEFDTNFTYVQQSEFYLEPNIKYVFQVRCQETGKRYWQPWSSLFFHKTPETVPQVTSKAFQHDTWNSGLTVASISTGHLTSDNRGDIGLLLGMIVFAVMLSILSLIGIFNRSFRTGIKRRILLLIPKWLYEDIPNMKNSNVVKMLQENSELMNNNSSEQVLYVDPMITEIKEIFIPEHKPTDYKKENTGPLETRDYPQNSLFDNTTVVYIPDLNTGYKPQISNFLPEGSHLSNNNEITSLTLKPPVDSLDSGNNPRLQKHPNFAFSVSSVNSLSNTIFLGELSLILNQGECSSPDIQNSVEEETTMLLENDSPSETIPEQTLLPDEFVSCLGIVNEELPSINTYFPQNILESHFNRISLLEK

[2] = biological target: T2, interleukin-23 (IL-23) receptor (Homo sapiens, UniProt Q5VWK5); assay: PBMC pSTAT3 assay; format: cell-based; settings: PBMCs from healthy donors; peptide 30 minutes before IL-23 at 5 ng/mL for 30 minutes; phosphorylated STAT3 in cell lysates
T2 construct: Cryopreserved peripheral blood mononuclear cells (PBMCs) from healthy donors were thawed; endogenous in cells; host or cells: cryopreserved PBMCs from healthy donors, expanded 4 days on anti-CD3 with IL-1
T2 sequence (Q5VWK5 24-629): T1 sequence (Q5VWK5 24-629)
Experimental: Cryopreserved peripheral blood mononuclear cells (PBMCs) from healthy donors were thawed and washed twice in ImmunoCult-XF T cell expansion medium (XF-TCEM) supplemented with CTL anti-aggregate wash. The cells were counted, resuspended at 2×10^5 cells per mL XF-TCEM supplemented with penicillin/streptomycin and 100 ng/mL IL-1 (BioLegend, 579404), and cultured in tissue culture flasks coated with anti-CD3 (eBioscience, 16-0037-85 or BD Pharmingen, 555329) at 37° C. in 5% CO2. On day 4 of culture, PBMCs were collected, washed twice in RPMI-1640 supplemented with 0.1% BSA (RPMI-BSA), and incubated in RPMI-BSA in upright tissue culture flasks for 4 hours at 37° C. in 5% CO2. Following this ‘starvation,’ a total of 6×10^4 cells in […] RPMI-BSA was transferred into each well of a 384-well plate pre-spotted with peptide or DMSO. The cells were incubated for 30 minutes prior to the addition of IL-23 at a final concentration of 5 ng/mL. The cells were stimulated with cytokine for 30 minutes at 37° C. in 5% CO2, transferred onto ice for 10 minutes, and lysed. Cell lysates were stored at −80° C. until phosphorylated STAT3 was measured using the phospho-STAT panel kit (Meso Scale Discovery, K15202D).

| Structure (SMILES) | EPSA [1] | IC50 (IL-23R) | IC50 [2] |
| --- | --- | --- | --- |
| CC(=O)N(C)CCCC[C@@H]1NC(=O)[C@H](Cc2c[nH]c3c(C)cccc23)NC(=O)[C@H]([C@@H](C)O)NC(=O)[C@H](CC(=O)N(C)C)NC(=O)[C@@H](NC(=O)CCOCCOCC[N+](C)(C)C)C(C)(C)SSC(C)(C)[C@@H](C(=O)N[C@@H](Cc2ccc(OCCC[N+](C)(C)C)cc2)C(=O)N[C@@H](Cc2ccc3ccccc3c2)C(=O)NC2(C(=O)N[C@@H](CCCCN(C)C(C)=O)C(=O)N[C@@H](CC(N)=O)C(=O)N[C@@H](Cc3cccnc3)C(=O)N(C)CC(=O)N(C)C)CCOCC2)NC1=O [compound 230, cPEG3aCO-Pen(3)-N(N(Me)2)-T-7MeW-K(NMeAc)-Pen(3)-TMA3F-2Nal-THP-K(NMeAc)-N-3Pya-Sar-CON(Me)2] ({Me3N+(CH2)2O(CH2)2O(CH2)2CO}-[Pen]D(NMe2)T[Trp(7-Me)][Lys(Me)](Ac)[Pen]Y(X12)[2Nal][Thp][Lys(Me)](Ac)N[3Pal][Sar]-NMe2; disulfide 1-6) | 141.56 Å^2 | 3.8 nM | – |
| CNC(=O)C[C@H](NC(=O)[C@H](CCCCNC(C)=O)NC(=O)C1(NC(=O)[C@H](Cc2ccc3ccccc3c2)NC(=O)[C@H](Cc2ccc(OCCN)cc2)NC(=O)[C@H]2NC(=O)[C@H](CCCCNC(C)=O)NC(=O)[C@H](Cc3c[nH]c4c(C)cccc34)NC(=O)[C@H]([C@@H](C)O)NC(=O)[C@H](CC(N)=O)NC(=O)[C@@H](NC(C)=O)C(C)(C)SSC2(C)C)CCOCC1)C(=O)N[C@@H](Cc1cccnc1)C(=O)N(C)CC(N)=O [compound 48] (Ac-[Pen]NT[Trp(7-Me)]K(Ac)[Pen][AEF][2Nal][Thp]K(Ac)D(NHMe)[3Pal][Sar]-NH2; disulfide 1-6) | 160.24 Å^2 | 730 nM | – |
| CC(=O)N[C@@H]1C(=O)N[C@@H](CC(=O)N(C)C)C(=O)N[C@@H]([C@@H](C)O)C(=O)N[C@@H](Cc2c[nH]c3c(C)cccc23)C(=O)N[C@@H](CCCCN(C)C(=O)CCOCCOCC[N+](C)(C)C)C(=O)N[C@H](C(=O)N[C@@H](Cc2ccc(OCCOCCOCC[N+](C)(C)C)cc2)C(=O)N[C@@H](Cc2ccc3ccccc3c2)C(=O)NC2(C(=O)N[C@@H](CCCCN(C)C(C)=O)C(=O)N[C@@H](CC(N)=O)C(=O)N[C@@H](Cc3cccnc3)C(=O)N(C)CC(=O)N(C)C)CCOCC2)C(C)(C)SSC1(C)C [compound 217, MeCO-Pen(3)-N(N(Me)2)-T-7MeW-K(NMePEG3a)-Pen(3)-APEG3F-2Nal-THP-K(NMeAc)-N-3Pya-Sar-CON(Me)2] (Ac-[Pen]D(NMe2)T[Trp(7-Me)][Lys(Me)](Me3N+(CH2)2O(CH2)2O(CH2)2CO)[Pen]Y(CH2CH2OCH2CH2OCH2CH2NMe3+)[2Nal][Thp][Lys(Me)](Ac)N[3Pal][Sar]-NMe2; disulfide 1-6) | – | 3.8 nM | 0.026 nM |
